Substitutions are numbered along the chain they refer to; changes in the protein carry UniProt numbers. The list shows a part of the results.
T1: RBFOX1 RRM (Homo sapiens, UniProt Q9NWB1 109-208)
T1 sequence: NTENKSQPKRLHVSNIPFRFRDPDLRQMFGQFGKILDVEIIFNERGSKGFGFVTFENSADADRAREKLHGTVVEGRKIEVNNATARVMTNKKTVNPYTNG

B1: GCAUAUU (DNA:RNA)
RNA: GGGAGACCGGAAUUCAGAUUGUCCGCAUAUUUUAAAUCCCGUCGUAGCCACCA
DNA 1: CAATCTGAATTCCGGTCTCCC
DNA 2: TGGTGGCTACGACGGGATT
B2: GGAAGCA (DNA:RNA)
RNA: B1 RNA with C26G, U28A, A29G, U30C, U31A
DNA 1: CAATCTGAATTCCGGTCTCCC
DNA 2: TGGTGGCTACGACGGGATT
B3: UGCAGGG (DNA:RNA)
RNA: GGGAGACCGGAAUUCAGAUUGUCCUGCAGGGUUAAAUCCCGUCGUAGCCACCA
DNA 1: CAATCTGAATTCCGGTCTCCC
DNA 2: TGGTGGCTACGACGGGATT
B4: CGAAUGA (DNA:RNA)
RNA: B3 RNA with U25C, C27A, G29U, G31A
DNA 1: CAATCTGAATTCCGGTCTCCC
DNA 2: TGGTGGCTACGACGGGATT
B5: UCUGAUA (DNA:RNA)
RNA: B1 RNA with G25U, A27U, U28G, U31A
DNA 1: CAATCTGAATTCCGGTCTCCC
DNA 2: TGGTGGCTACGACGGGATT
B6: GUUAAUG (DNA:RNA)
RNA: B1 RNA with C26U, A27U, U28A, U31G
DNA 1: CAATCTGAATTCCGGTCTCCC
DNA 2: TGGTGGCTACGACGGGATT
B7: GGUAUGU (DNA:RNA)
RNA: B3 RNA with U25G, C27U, G29U, G31U
DNA 1: CAATCTGAATTCCGGTCTCCC
DNA 2: TGGTGGCTACGACGGGATT
B8: AGUCUCG (DNA:RNA)
RNA: B3 RNA with U25A, C27U, A28C, G29U, G30C
DNA 1: CAATCTGAATTCCGGTCTCCC
DNA 2: TGGTGGCTACGACGGGATT
B9: GCAAAGG (DNA:RNA)
RNA: B1 RNA with U28A, U30G, U31G
DNA 1: CAATCTGAATTCCGGTCTCCC
DNA 2: TGGTGGCTACGACGGGATT

These binders were tested against T1, RBFOX1 RRM (assay: EMSA; HiTS-Eq, 1 nM pool, 10 min; buffer printed only for the single-RNA assays: 10 mM Tris pH 7.5, 150 mM NaCl, 3.4 mM EDTA, 0.001% NP-40, 30 C). Details: tags: His6 N-terminal (pET28a); label: 5' 32P.
In short: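 These values rest on relative association constants, computed from read-count changes of each RNA species versus the control reaction and normalised to the cognate motif. Reads came from free RNA recovered by 8% native PAGE after purified RbFox RRM (wild type or mutant) at increasing concentrations was equilibrated for 10 min in 50 µL with 1 nM of a 5′-radiolabelled pool with 7 randomized nucleotides and DNA-annealed flanks.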

First: B1
Second: B2
The binding signal of the first is lower: 0.00375 KA relative to UGCAUGU for the first, 0.0162 KA relative to UGCAUGU for the second.

First: B3
Second: B4
The binding signal of the first is lower: 0.0139 KA relative to UGCAUGU for the first, 0.0187 KA relative to UGCAUGU for the second.

First: B5
Second: B6
The binding signal of the first is lower: 0.00948 KA relative to UGCAUGU for the first, 0.0118 KA relative to UGCAUGU for the second.

First: B7
Second: B8
The binding signal of the first is higher: 0.0195 KA relative to UGCAUGU for the first, 0.0143 KA relative to UGCAUGU for the second.

B9 was tested, and the binding signal was 0.00814 KA relative to UGCAUGU.
